# Results reported in PubChem BioAssay AID1745853 (National Center for Advancing Translational Sciences (NCATS), 2022).
# Some of the results follow. The main result of the screen is listed elsewhere. These columns were measured beside it and carry no call.
# Columns and labels:
# Assay in all cases: Primary Screen for Target Class Profiling of Small Molecule Inhibitors of Methyltransferases
# [1] = target: Glycine N-methyltransferase (Homo sapiens) (UniProt Q14749); conditions: purified enzyme, MTase-Glo SAH luminescence; measured here: GNMT inhibition; at 40 µM; stronger effect = lower value
# In short: (§1)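 Each enzyme was reacted with SAM and its substrate, with compounds tested once at 40 uM; SAH formed was read by MTase-Glo luminescence.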
# [2] = target: Guanidinoacetate N-methyltransferase (Homo sapiens) (UniProt Q14353); conditions: purified enzyme, MTase-Glo SAH luminescence; measured here: GAMT inhibition; at 40 µM; stronger effect = lower value
# In short: as §1
# [3] = target: Histamine N-methyltransferase (Homo sapiens) (UniProt P50135); conditions: purified enzyme, MTase-Glo SAH luminescence; measured here: HNMT inhibition; at 40 µM; stronger effect = lower value
# In short: as §1
# [4] = target: Nicotinamide N-methyltransferase (Homo sapiens) (UniProt P40261); conditions: purified enzyme, MTase-Glo SAH luminescence; measured here: NNMT inhibition; at 40 µM; stronger effect = lower value
# In short: as §1
# [5] = target: Phenylethanolamine N-methyltransferase (Homo sapiens) (UniProt P11086); conditions: purified enzyme, MTase-Glo SAH luminescence; measured here: PNMT inhibition; at 40 µM; stronger effect = lower value
# In short: as §1
# % is scaled to controls: 0 for no effect and ±100 for the full control effect.
SMILES,"activity change, negative = inhibition [1] [%]","activity change, negative = inhibition [2] [%]","activity change, negative = inhibition [3] [%]","activity change, negative = inhibition [4] [%]","activity change, negative = inhibition [5] [%]"
CCN1c2cc(C(=O)Nc3cccc(C(F)(F)F)c3)ccc2C(=O)N2CCCCC21 (stereo not given),-22.9,-4.49,-18.4,-8.71,-10.1
CCCn1c(=O)c2ccc(C(=O)NCC(C)C)cc2n2c(SCC(N)=O)nnc12,8.29,0,7.29,12.2,9.47
COc1cccc(C2c3cccn3-c3sc4c(c3CN2C(=O)Nc2ccc(C)cc2)CCCC4)c1 (stereo not given),0.404,0,-2.22,-2.6,4.35
Cc1ccc2c(c1)N(CCCC(=O)N1CCC(C)(c3noc(C4CC4)n3)CC1)C(=O)CO2,-7.12,-4.51,-2.83,-13.5,-4.87
CC(=O)N1CCC(N2C[C@H](O)C[C@H]2c2nc(CS(=O)(=O)c3ccc(C)cc3)no2)CC1,-5.11,-6.95,-3.09,-8.32,-5.33
CCC(C)NC(=O)c1ccc2c(=O)n(C(C)C)c3nn(Cc4ccc(C)cc4)c(=O)n3c2c1 (stereo not given),1.85,0,3.6,1.64,1.28
CCOc1ccc(-c2cc3n(n2)CC(C)(C(=O)NCCC(C)C)N(c2ccccc2CC)C3=O)cc1 (stereo not given),2.19,4.34,-0.411,2.92,-4.33
O=C(O)c1cccc(CC2CCN(C(=O)CCC(F)(F)F)C2)c1 (stereo not given),-5.37,-5.59,-3.45,-6.46,-6.37
CC1(C(=O)NC2CCCCCC2)Cn2c(cc3occc32)C(=O)N1Cc1ccc2c(c1)OCO2 (stereo not given),3.13,-38.7,8.37,-6.19,0.764
O=C(N[C@@H]1CN(C(=O)Nc2ccccc2)CCC[C@H]1O)c1ccc(O)cc1,-7.01,-10.9,-5.76,-17.3,-6.93
Cc1ccc(NC(=O)N2Cc3c(sc4c3CCCC4)-n3cccc3C2c2cc(F)cc(F)c2)cc1 (stereo not given),0.167,0,4.6,0.636,3.67
CC(CCc1ccc(O)cc1)NCCc1ccc(O)c(O)c1 (stereo not given),-10.4,10.3,-25.4,-3.87,4.24
O=C(CC1CCCC1)N1CC(c2nc(CCOCc3ccccc3)no2)C1,-0.931,2.32,1.76,-10.4,14.1
Cc1nc2c3ccccc3n3c(CCCC(=O)NC4CCN(Cc5ccccc5)CC4)nnc3n2n1,-3.14,4.61,-11.9,10.4,-0.922
CCC(C)NC(=O)c1ccc2c(=O)n(Cc3ccccc3)c3nn(Cc4cccc(Cl)c4)c(=O)n3c2c1 (stereo not given),0.773,1.6,-0.577,2.99,1.55
CC(=O)c1ccc(O[C@@H]2O[C@H](CO[C@@H]3OC[C@@H](O)[C@H](O)[C@H]3O)[C@@H](O)[C@H](O)[C@H]2O)cc1,3.95,5.86,6,-8.95,-1.11
O=c1cc(O)cc(/C=C/c2ccc(O)c(O)c2)o1,-63.8,-8.37,-27,-13.6,-0.512
C[C@H](C(=O)N1CCSCC1)C1CC[C@@]2(C)Cc3sc(Nc4c(Cl)cccc4Cl)nc3[C@@H](C)[C@@H]2[C@H]1O (stereo not given in full),-3.77,0.685,0.59,-1.58,9.43
COc1cccc(N2C(=O)c3cc4ccccc4n3CC2(C)C(=O)NC2CCCCCC2)c1 (stereo not given),-0.115,4.56,-1.81,-3.9,-4.05
O=C(COCC(=O)N1CCN(C(c2ccccc2)c2ccccc2)CC1)Nc1ccc(Cl)cc1C(=O)O,-33,7.28,12.6,-62.4,-6.77
Cc1nc2ccccc2c(-c2ccc3c4c(ccnc24)CCO3)c1[C@H](OC(C)(C)C)C(=O)O,1.44,-3.58,4.13,-20.8,-6.23
O=C(N[C@@H]1C[C@H](Cn2cc(CN3CCS(=O)(=O)CC3)nn2)[C@@H](O)[C@H]1O)C1CCCC1,-0.698,1.48,0.537,-3.07,-3.49
CCOC(=O)c1cc2n(n1)CC(C)(C(=O)NC1CCCC1)N(CCc1cccs1)C2=O (stereo not given),-3.02,2.02,0.789,-5.65,-2.54
CCCNC(=O)C(C)n1ccc2cc(S(=O)(=O)N3CCCC3)ccc21 (stereo not given),8.51,0,5.67,8.99,1.85
Cc1ccccc1COC1CN(C(=O)C2CCN(C(=O)C3CC3)CC2)C1,-1.58,0.543,0.109,-0.705,11.3
Cc1ccc(Cl)cc1NC(=O)CSc1nnc2[nH]c(=O)c(C)nn12,11.3,0,5.69,0.621,-0.879
O=C(NC1CCCC1)c1ccc2c(=O)n(Cc3ccccc3)c3nn(Cc4ccccc4)c(=O)n3c2c1,-1.33,0.804,2.33,-2.83,-1.65
CCC(C(=O)NC(C)C)n1ccc2cc(S(=O)(=O)N3CCCCC3)ccc21 (stereo not given),7.82,1.7,8.57,13.9,7.22
CCOc1ccc(-c2cc3c(=O)n(CCNC(=O)c4ccoc4)ccn3n2)cc1,-4.43,-1.48,1.06,-0.784,2.41
